From the GPR68 mutational scans of Howard et al. (2025)
Scores whose standard error is large were omitted. Not listed are two conditions whose scores span a narrow range. Read del as a deletion of the residues named and ins as an insertion between two positions. For part of these data: The data file names ogerin without a concentration.

B1: GPR68, Q15743 (parent)
chain: MGNITADNSSMSCTIDHTIHQTLAPVVYVTVLVVGFPANCLSLYFGYLQIKARNELGVYLCNLTVADLFYICSLPFWLQYVLQHDNWSHGDLSCQVCGILLYENIYISVGFLCCISVDRYLAVAHPFRFHQFRTLKAAVGVSVVIWAKELLTSIYFLMHEEVIEDENQHRVCFEHYPIQAWQRAINYYRFLVGFLFPICLLLASYQGILRAVRRSHGTQKSRKDQIQRLVLSTVVIFLACFLPYHVLLLVRSVWEASCDFAKGVFNAYHFSLLLTSFNCVADPVLYCFVSETTHRDLARLRGACLAFLTCSRTGRAREAYPLGAPEASGKSGAQGEEPELLTKLHPAFQTPNSPGSGGFPTGRLA

Legend:
[1] = variants of: B1; assay: cAMP reporter score (Enrich2 score, wild type = 0); higher = more signal; HEK293T, FACS bins
[2] = variants of: B1; assay: surface expression score (Enrich2 score, wild type = 0); higher = more signal; HEK293T, FACS bins

Variant | cAMP reporter score ([1]; pH 5.5) | cAMP reporter score ([1]; pH 6) | cAMP reporter score ([1]; pH 6, modulator: ogerin) | cAMP reporter score ([1]; pH 6.5, modulator: ogerin) | surface expression score [2]
A180_W181insGS | -0.072 | -0.3 | -1.2 | 0.257 | -0.065
Y187_Y188insGS | -1.3 | -0.664 | -1.62 | -1.11 | -2.13
A184_N186del | -1.56 | -1.61 | -1.2 | -1.63 | -1.37
W181_R183del | -1.46 | -1.42 | -1.77 | -1.62 | -2.02
W181del | -1.43 | -1.38 |  | -1.41 | -0.452
I185_Y187del | -1.49 | -1.32 | -1.28 | -1.32 | -2.33
A180_W181insGSG | -0.602 | -1.27 | -0.711 | -1.83 | -1.03
A184_I185del | -1.27 | -1.16 | -1.43 | -1.23 | -2.17
Y188R | 0.538 |  |  | -0.853 | -2.24
Y188N | -0.485 | -0.477 | 0.317 | -2.85 | -0.798
Y188I | -0.037 |  | -0.05 | -0.724 | 
Y188W | 0.307 | 2.98 | 0.168 | -0.417 | 
Y188S | -0.971 | 0.887 | -0.43 | 0.271 | -1.83
Y188M | 1.7 | 3.41 | 1.66 | 0.46 | -1.55
Y188E | 0.104 |  | -0.054 | 4.68 | -0.397
Y188H | 1.33 | 4.66 | 0.695 | -0.558 | -1.58
Y188F | -0.496 | 1.08 | -0.643 | -0.587 | -0.48
Y188V | 0.173 |  | -0.228 | -1.34 | -2.2
Y188Q | -0.822 | -0.605 |  | 0.64 | 
Y188A | 1.12 | 1.58 | -0.099 | -0.61 | 
Y188P | -1.2 | -1.51 |  | -1.7 | -1.88
Y188C | -0.463 | 0.56 | -0.805 | -0.355 | -0.805

Variant | cAMP reporter score ([1]; pH 5.5) | cAMP reporter score ([1]; pH 6) | cAMP reporter score ([1]; pH 6, modulator: ogerin) | cAMP reporter score ([1]; pH 6.5, modulator: ogerin) | surface expression score [2]
Y188L | 1.29 |  |  | -1.92 | -1.6
Y188T | -0.48 | 0.815 | -0.653 | -0.371 | -0.288
Y188G | 0.46 | 1.18 | -0.622 | -1.1 | -1.78
I185_N186del | -0.588 |  | -0.263 | -2.2 | -2.02
Q179_W181del | -1.18 | -0.911 | -1.23 | -1.19 | -0.635
Y187del | -0.92 | -0.06 | -1.22 | -0.93 | -2.22
N186_Y187insG | -0.402 | -1.61 | -0.89 | -0.815 | 
R183_I185del | -1.94 | -1.34 | -1.93 | -1.82 | -1.52
W181_Q182insGSG | 0.329 | -0.139 | -0.938 | -1.88 | -1.16
A184P | 0.477 | 2.24 | 0.545 | 2.51 | 0.231
A184D | 0.099 | 0.535 | -0.242 | -0.081 | -0.43
A184T | 0.753 | -0.415 | 0.847 | 0.357 | 1.06
A184C | 1.98 |  | 1.75 | 0.125 | 
A184S | -0.119 | -0.456 | -0.288 | 0.195 | -0.362
A184H | 1.03 | 1.15 | 0.842 | 2.43 | 1.5
A184E | 1.86 |  | 1.67 | 0.456 | -0.804
A184I | 0.733 |  | -0.449 | -0.438 | 
A184K | 2.23 | 3.59 | 0.997 | 3.91 | 2.57
A184F | -0.146 | -1.06 | 0.025 | -0.961 | -0.584
A184W | -0.464 |  | -1.93 | 0.632 | -2.31
A184Y | -0.72 |  | -0.567 | 0.443 | -0.914
A184N | 1.54 |  | 0.854 | 0.573 | 0.598

Variant | cAMP reporter score ([1]; pH 5.5) | cAMP reporter score ([1]; pH 6) | cAMP reporter score ([1]; pH 6, modulator: ogerin) | cAMP reporter score ([1]; pH 6.5, modulator: ogerin) | surface expression score [2]
A184L | -0.053 | -0.336 | 0.076 | -0.639 | -1.03
A184R | -0.819 | 1.06 | -0.232 | -0.066 | 0.328
A184V | 0.658 | -0.56 | 0.1 | 0.066 | -0.642
A184Q | -1.32 | -0.98 | -1.67 | -1.34 | -0.951
A184M | 0.115 | -1.15 | -0.153 | -0.882 | -0.998
R183_A184insG | -0.069 | 0.009 | -0.835 | -0.484 | 
Q182D | -0.671 | -1.25 | -1.72 | -0.989 | -0.06
Q182F | -0.501 |  |  | -0.947 | -0.651
Q182S | -0.388 | -0.43 | -1.02 |  | 0.874
Q182T | 0.248 | 0.065 | 0.199 | -0.837 | 0.14
Q182I | 0.373 | -0.377 | -0.626 | -0.41 | -2.7
Q182A | -0.119 | 0.156 | -0.383 | -1.08 | -0.211
Q182K | 0.317 | 2.86 | 0.546 | 3.26 | -0.802
Q182L | 0.357 | -1.09 | -0.363 | -0.949 | 
Q182M | 0.263 |  | -0.141 | -0.536 | -0.104
Q182R | 1.27 | 4.79 | -0.189 | 3.64 | -0.6
Q182P | -1.66 | -1.23 | -0.929 | -1.18 | -0.261
Q182W | -1.09 | 0.432 |  | -0.3 | -0.053
Q182V | 1.47 | 0.072 | 0.147 | -0.739 | -0.613
Q182H | 0.056 | 0.519 | 0.703 | 1.37 | 1.26
Q182Y | -0.233 | -0.142 | -0.796 | -0.21 | -0.273
